# Assay results as given in PubChem BioAssay (Tox21).
# This list was built around the results that the source calls inconclusive (neither active nor inactive); the mix of calls is not that of the screen. No potency is given beside an inconclusive call; the fits are too rough. Active and inactive are the calls of the source. Unless noted, the call rests on the fitted dose curve; in most records, active means well fitted curve in the direction sought with a large enough effect in the repeat runs; inconclusive means weak or mixed curves; inactive means no such curve, though single readings can be large; an effect the other way counts as inactive or inconclusive.
# Tests used:
# [1] = qHTS assay to identify small molecule antagonists of the retinoid-related orphan receptor gamma (ROR-gamma) signaling pathway - cell viability counter screen (AID 1159520); further: nearly all actives have a fitted effect of over 50% in size
# Method in brief: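 Cytotoxicity was read from cellular ATP (CellTiter-Glo luminescence) after 16 hr at 37 C with 1 uM doxycycline induction. The inducer was added 2 hr after compound transfer to Tet-on ROR gamma CHO cells.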
# [2] = molecular target: Nuclear receptor ROR-gamma (Homo sapiens) (UniProt P51449); assay: qHTS assay to identify small molecule antagonists of the retinoid-related orphan receptor gamma (ROR-gamma) signaling pathway (AID 1159521; further: nearly all actives have a fitted effect of over 50% in size)
# Method in brief: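 Tet-on ROR-gamma CHO cells with ROR response element-luciferase reporter; compounds added 2 hr before 1 uM doxycycline induction, then 16 hr at 37 C. Antagonism scored as decreased ONE-Glo luminescence.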
# [3] = qHTS assay to identify small molecule agonists of the AP-1 signaling pathway (AID 1159526; calls by dose curve; on activation: on the % scale 0 is the no-effect control and ±100 the full control effect); details: ME-180 (cervical carcinoma) AP-1-bla reporter, beta-lactamase FRET ratio, 5 h; activation: at 76.8 µM (top of the series) unless noted
# [4] = molecular target: Retinoic acid receptor RXR-alpha (Homo sapiens) (UniProt P19793); assay: qHTS assay to identify small molecule agonists of the RXR signaling pathway (AID 1159527; calls by dose curve; further: nearly all actives have a fitted effect of over 35% in size; on activation: on the % scale 0 is the no-effect control and ±100 the full control effect); details: HEK293T RXRa-UAS-bla, beta-lactamase ratio, 16 h; activation: at 76.8 µM (top of the series) unless noted
# UniProt P19793, sequence (P19793 whole entry, looked up): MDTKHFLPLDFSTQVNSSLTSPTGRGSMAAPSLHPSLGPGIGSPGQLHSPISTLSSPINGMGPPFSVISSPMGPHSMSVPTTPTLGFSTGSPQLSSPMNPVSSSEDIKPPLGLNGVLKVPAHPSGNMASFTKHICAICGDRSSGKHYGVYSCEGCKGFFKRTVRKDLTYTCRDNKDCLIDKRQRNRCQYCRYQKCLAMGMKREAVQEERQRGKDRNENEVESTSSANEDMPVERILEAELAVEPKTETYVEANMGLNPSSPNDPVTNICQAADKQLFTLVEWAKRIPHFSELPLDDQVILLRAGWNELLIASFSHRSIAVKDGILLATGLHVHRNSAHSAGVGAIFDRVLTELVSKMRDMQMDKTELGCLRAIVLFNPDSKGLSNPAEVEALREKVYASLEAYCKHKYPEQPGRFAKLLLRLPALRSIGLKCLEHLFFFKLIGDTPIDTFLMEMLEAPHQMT
# Method in brief: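 GeneBLAzer RXR-alpha-UAS-bla HEK 293T cells in 2% charcoal-stripped FBS medium were exposed to compounds for 16 hr at 37 C in agonist mode. Beta-lactamase reporter read as 460/530 nm FRET ratio after 2 hr substrate loading.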
# [5] = qHTS assay to identify small molecule agonists of the RXR signaling pathway - cell viability counter screen (AID 1159529); further: nearly all actives have a fitted effect of over 50% in size
# Method in brief: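 RXR-alpha-UAS-bla HEK 293T cells in medium with 2% charcoal-stripped FBS were pre-incubated 5 hr, then compound-treated 16 hr at 37 C. Viability was read by CellTiter-Glo luminescence in the same wells as the beta-lactamase assay, with tetraoctyl ammonium bromide as positive control.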
# [6] = qHTS assay to identify small molecule antagonists of the retinoic acid receptor (RAR) signaling pathway (AID 1159552; further: nearly all actives have a fitted effect of over 50% in size)
# Method in brief: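 Retinol signaling pathway inhibitors screened in C3RL4 RARE-luciferase reporter cells seeded overnight at 37 C, then compounds added with 1 uM (final) retinol as pathway substrate. After 6 hr at 37 C, luciferase luminescence read after 30 min at room temperature.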
# [7] = qHTS assay to identify small molecule antagonists of the retinoid acid receptor (RAR) signaling pathway - cell viability counter screen (AID 1159551); further: nearly all actives have a fitted effect of over 35% in size
# Method in brief: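 Cells (C3RL4) are plated, incubated overnight, dosed with compound in DMSO, then given retinol at 1 uM final. After 6 h at 37 C, CellTiter-Glo is added and luminescence read following 30 min at room temperature.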
# Potency means the concentration at half of the fitted maximal effect; tags describe the fitted curve by direction and shape or compound fluorescence and quenching.
compound,measurement,setting,value
Oc1cc(Cl)c(Cl)c(Cl)c1Cl,Potency,[1],active: 53.2 µM
same,Potency,[2],active: 23.8 µM
same,Potency,[3],inconclusive
same,Potency,[4],"inconclusive [inhibitor, partial curve, poor fit]"
C#CCC1=C(C)C(OC(=O)C2C(C=C(C)C)C2(C)C)CC1=O (stereo not drawn),Potency,[1],"inconclusive [cytotoxic, partial curve]"
same,Potency,[2],"inconclusive [inhibitor, single point]"
same,Potency,[3],"inconclusive [falling, single point]"
same,activation,[4],inconclusive: -39.3%
same,Potency,[5],"inconclusive [cytotoxic, partial curve]"
same,Potency,[6],inconclusive [inhibitor]
COC(=O)N(OC)c1ccccc1COc1ccn(-c2ccc(Cl)cc2)n1,Potency,[1],"inconclusive [cytotoxic, full curve]"
same,Potency,[2],active: 0.273 µM
same,activation,[3],inconclusive: -8.33%
same,activation,[4],inconclusive: -25.9%
same,Potency,[7],"inconclusive [cytotoxic, partial curve, poor fit]"
same,Potency,[6],"inconclusive [inhibitor, full curve]"
CC(=O)C(Cl)C(=O)N(C)C (stereo not drawn),Potency,[1],inconclusive [cytotoxic]
same,Potency,[2],"inconclusive [inhibitor, single point]"
c1ccc(N2CCNCC2)cc1,Potency,[1],inactive
same,Potency,[2],"inconclusive [inhibitor, single point]"
ClC1=C(Cl)[C@]2(Cl)[C@H]3[C@H]([C@H]4C=C[C@H]3C4)[C@@]1(Cl)C2(Cl)Cl,Potency,[1],"inconclusive [cytotoxic, partial curve, poor fit]"
same,Potency,[2],"inconclusive [inhibitor, partial curve, poor fit]"
same,Potency,[4],inconclusive
